Experimental findings from ChEMBL document CHEMBL4888484, “Replenishing the malaria drug discovery pipeline: Screening and hit evaluation of the MMV Hit Generation Library 1 (HGL1) against asexual blood stage Plasmodium falciparum ,using a nano luciferase reporter read-out” (2022) are described below.

The structures appear in SMILES notation. The campaign covered roughly 150,000 compounds. About 540 (0.36%) showed an effect of 50% or more. The list shows a part of the results.

The test has as its system Plasmodium falciparum. In words: Primary screen in NF54 nanoGlo assay, in single point, at 2uM, 72h; a lower Z score goes with more inhibition. It counts as functional, Erythrocyte. The settings on record: timepoint 72 hour.
For orientation: % Inhibition means the drop in the measured response relative to a control, in per cent. `O=C(C[C@H](c1ccc(F)cc1)c1c[nH]c2ccccc12)N1CCCC1`: the “% Inhibition” value is reported as -9% and the Z score turned out to be 1.18.

Take `O=C(CN(CC1CC1)C(=O)C1CCCC1)Nc1nc(-c2ccccc2)cn1-c1ccc(F)c(Cl)c1`: the “% Inhibition” value is reported as -9% and the Z score worked out at 1.27.

Regarding `C[C@@H](c1ccccn1)N(C)c1cc(NCC2CC2)ncn1`, the “% Inhibition” value is recorded as -9% and the Z score stood at 0.79.

In the case of `Cc1nc2c(NCc3csc4c3CCCC4)ncnc2o1`, the “% Inhibition” value was determined as 0% and the Z score is reported as 0.04.

Consider `Cn1c(=O)n(CC(=O)NCCCN2CCOCC2)c(=O)c2cnc(-c3ccccc3)nc21`, for which the “% Inhibition” value is given as -5% and the Z score is reported as 0.8.

In the case of `COCCn1cc(NC(=O)C2CCC(N3CCOCC3)CC2)cn1` (stereo unspecified), the “% Inhibition” value was -18% and the Z score stood at 2.77.

Take `CCOc1c(Br)cc(C2Nc3ccc(C)cc3[C@H]3OCC[C@@H]23)cc1OC` (stereo partly specified): the “% Inhibition” value is -3% and the Z score came to 0.54.

In the case of `c1ccc(-c2cc3c(N4CCn5ccnc5C4)ncnc3s2)cc1`, the “% Inhibition” value is 1% and the Z score is -0.13.

As for `CC[C@@](C)(C#N)NC(=O)c1ccc(-c2ccco2)nc1C`, the “% Inhibition” value was -11% and the Z score is 1.43.

Regarding `COCCOC[C@]1(CNC(=O)c2ccc(OC)cc2)C[C@@H](O)[C@@H](O)C1`, the “% Inhibition” value is 26% and the Z score is reported as -2.94.

As to `COc1cccc(-c2nnc(NC(=O)CCN(C(=O)c3ccccc3F)C3CCCCC3)s2)c1`, the “% Inhibition” value was -17% and the Z score turned out to be 2.4.

On to `C=CCNC(=O)Cc1nnc2ccc(-c3nc(CC)no3)cn12`, for which the “% Inhibition” value was -2% and the Z score is on record as 0.29.

Turning to `COc1ccc(C2=C[C@@H](c3ccccc3Cl)n3nc(-c4ccc(Cl)cc4)nc3N2)cc1`, the “% Inhibition” value is -8% and the Z score is 1.09.

In the case of `COc1cccc(CN2CC(C(=O)NC3CC4CCC3C4)CC2=O)c1` (stereo unspecified), the “% Inhibition” value was -3% and the Z score amounted to 0.32.

`CC(C)=CCN1C(=O)[C@@H]2CC[C@H]1CN(C(=O)c1ccc3c(c1)OCO3)C2`: the “% Inhibition” value is reported as -9% and the Z score is on record as 0.82.

Take `C[C@H](NC(=O)c1ccccc1)C(C)(C)C`: the “% Inhibition” value turned out to be 3% and the Z score is given as -0.42.

`O=C(N[C@@H]1CCCc2c(F)cc(F)cc21)c1cc2n(n1)CCO2`: the “% Inhibition” value stood at 9% and the Z score is -1.16.

As for `Cc1ccccc1Cn1nnc2cc(C(=O)NC3CCN(Cc4ccccc4)CC3)ccc21`, the “% Inhibition” value is listed as -17% and the Z score amounted to 1.71.

`COC1CCC(N(C)S(=O)(=O)C[C@H]2CCOC2)CC1` (stereo partly specified): the “% Inhibition” value is 3% and the Z score was -0.37.

On to `COCC[C@]1(NS(=O)(=O)c2ccccc2)CCN(Cc2cccn2C)C1`, for which the “% Inhibition” value was -12% and the Z score is reported as 2.2.

On to `O=C(Nc1ccccn1)C1CN(C(=O)c2cccs2)C1`, for which the “% Inhibition” value was -11% and the Z score was 1.75.

As to `CC(C)(C)C(=O)N1CCC2(CC1)OCC(C(=O)NCC1CCCO1)N2C(=O)c1ccc(F)cc1` (stereo unspecified), the “% Inhibition” value is on record as 5% and the Z score is -0.56.

Consider `CCn1nccc1[C@H]1OCC[C@@H]1NC(=O)c1ccnc2[nH]c(C)nc12`, for which the “% Inhibition” value is -9% and the Z score is on record as 1.29.

In the case of `CC1CCC(NC(=O)CN(C)S(=O)(=O)c2ccc3c(c2)C[C@H](C)N3C(=O)C2CCC2)CC1` (stereo partly specified), the “% Inhibition” value is on record as -2% and the Z score turned out to be 0.27.

As for `CCn1c([C@H]2CCCN(Cc3nc(C)c[nH]3)C2)nn(CCN(C)C)c1=O`, the “% Inhibition” value is reported as -2% and the Z score turned out to be 0.24.

With `Cc1cc(=O)c2cc(C(=O)NCc3ccccn3)ccc2[nH]1`, the “% Inhibition” value is 4% and the Z score is reported as -0.52.

With `Cc1nc2c(OC(=O)OC(C)(C)C)cccc2o1`, the “% Inhibition” value was -4% and the Z score was determined as 0.52.

On to `Cc1ccc2nc(CN3CCCN4CCC[C@H]4C3)[nH]c2c1`, for which the “% Inhibition” value was -16% and the Z score came out at 2.39.

Regarding `CCN(CCO)C(=O)NCC1CCCC1`, the “% Inhibition” value worked out at 0% and the Z score stood at 0.04.

Consider `O=C(Nc1ccc2[nH]c(=O)[nH]c2c1)c1ccc(-c2ccccc2F)o1`, for which the “% Inhibition” value is -5% and the Z score came out at 0.4.

Turning to `N#CC1COCCN1C(=O)C1CCCN(C(=O)NC2CCCC2)C1` (stereo unspecified), the “% Inhibition” value was -13% and the Z score was 2.03.

`O=C(NC(=O)c1cccs1)Nc1ccc(OC(F)(F)Cl)cc1`: the “% Inhibition” value turned out to be 1% and the Z score was -0.1.

For the compound `Cc1ccc2oc(-c3nc(CC(C)C)no3)cc2n1`, the “% Inhibition” value was -17% and the Z score is recorded as 1.87.

On to `Cc1ccccc1OC1CN(C(=O)[C@H]2CC(=O)N(c3cccc(O)c3)C2)C1`, for which the “% Inhibition” value is on record as 4% and the Z score is recorded as -0.4.

Take `COC(=O)C1CCN(C(=O)N[C@H]2CC(=O)N(c3ccc4c(c3)OCCO4)C2)CC1`: the “% Inhibition” value was found to be 13% and the Z score is reported as -1.66.

Turning to `CC(N)C1CCCN(C(=O)C2CCN(c3cc(Cl)ccc3Cl)C2=O)C1` (stereo unspecified), the “% Inhibition” value is -8% and the Z score is given as 1.17.

In the case of `O=C(Cc1cccs1)Nc1ccc(OCc2nnc(-c3ccccc3)o2)cc1`, the “% Inhibition” value is listed as -2% and the Z score was 0.25.

As for `COc1ccc(NC(=O)CN2CCc3c(c(=O)c4cc(C)ccc4n3C)C2)cc1`, the “% Inhibition” value was -2% and the Z score amounted to 0.23.

As to `CN(Cc1csc(C(C)(C)O)n1)C(=O)c1cn(C)nc1C1CCC1`, the “% Inhibition” value is given as -10% and the Z score is on record as 1.29.

Regarding `CC1CCC(NC(=O)c2ccc3c(c2)NC(=O)c2ccccc2N3)CC1` (stereo unspecified), the “% Inhibition” value is given as -2% and the Z score is reported as 0.46.

As for `Cc1cccc(N(CC#N)CC(=O)N2CCCCC2)c1`, the “% Inhibition” value was 1% and the Z score is listed as -0.15.

Turning to `Cc1ncc(S(=O)(=O)NC(=O)c2cnn3c2C[C@@H](C)CC3)s1`, the “% Inhibition” value is -7% and the Z score is 1.09.

`COc1ccc([C@@H](NC(=O)Nc2ccc3nn[nH]c(=O)c3c2)C(C)C)cc1OC`: the “% Inhibition” value is on record as -6% and the Z score was found to be 0.82.

For `CCCn1nccc1NC(=O)c1n[nH]c(C)c1C`, the “% Inhibition” value is given as -4% and the Z score was found to be 0.46.

For `COc1cccc(-c2cc(C(=O)N(CCc3ccccc3)Cc3ccccc3)nc3cc(C(C)(C)C)nn23)c1`, the “% Inhibition” value worked out at 6% and the Z score is -1.11.

Consider `CCO[C@@H](C)c1noc(CNC(=O)N(C)C2CC2)n1`, for which the “% Inhibition” value stood at 4% and the Z score is -0.49.

`COC(=O)[C@H](C)N(Cc1cncs1)C1CCC1`: the “% Inhibition” value is 8% and the Z score is reported as -1.12.

In the case of `CC(Cc1ccsc1)N1CCN(CC(=O)N2CCCCC2C)CC1` (stereo unspecified), the “% Inhibition” value is on record as -5% and the Z score is 0.53.

Consider `Cc1ccc(Cn2c(=O)n(CCNC(=O)CC(C)C)c3ncccc32)cc1`, for which the “% Inhibition” value is listed as 6% and the Z score was -0.65.

Regarding `CCOC(=O)C1CCCN(C(=O)C2CCN(c3ccccc3C)C2=O)C1` (stereo unspecified), the “% Inhibition” value is listed as -16% and the Z score came to 1.52.

Consider `CC1(C(=O)N[C@H]2C[C@H](c3ccc(F)cc3)C2)COC1`, for which the “% Inhibition” value is listed as -12% and the Z score is given as 2.19.

Take `C[C@@H](CCO)Nc1ncc(Cl)cc1Cl`: the “% Inhibition” value worked out at 5% and the Z score was -0.79.

For `Cc1nc(CNC(=O)[C@H]2CCC(=O)N(C3CCCCCC3)C2)n[nH]1`, the “% Inhibition” value is 2% and the Z score is -0.37.
